# PubChem BioAssay (Tox21)
# Where “and” joins values, the source holds several entries; their conditions need not be identical. Equal values may be shown once. Inconclusive results, whose numbers are uncertain, are shown with a selection of clear calls. For part of these data: A potency beside an inconclusive call is a rough fit, not a confirmed value. The source holds several records for some structures; these can differ, active in one and inactive in another. Calls of active or inactive are those of the source. Unless noted, calls come from the whole dose curve; as a rule, active = well fitted curve in the direction sought with a large enough effect in the repeat runs; inconclusive = weak or mixed curves; inactive = no such curve, though single readings can be large; an effect the other way counts as inactive or inconclusive.
# Key:
# [1] = qHTS assay to identify small molecule agonists of the hypoxia (HIF-1) signaling pathway (AID 1224846; active = well fitted activation curve with a large enough effect in the signal ratio in the repeat runs, not every such curve was filed as active; inconclusive = weak or mixed curves; the % refers to the signal ratio; note: potency is the fitted concentration of half-maximal effect; for activation: % is set by controls: 0 for no effect and ±100 for the full control effect); settings: HRE-bla ME-180 cells, beta-lactamase ratio, 17 h; activation: at 76.8 µM (top of the series) unless noted
# Outline: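 Reporter induction in HRE-bla ME-180 cells is taken as agonism: cells sit 5 hrs after plating, receive compounds or DMSO only, incubate 17 hrs at 37C under 5% CO2, and are loaded with CCF4-AM for beta-lactamase FRET measurement.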
# [2] = qHTS RealTime-Glo MT Cell Viability Assay in HepG2 cells - 40 hour (AID 1224870); settings: RealTime-Glo luminescence; series mostly up to 76.8 µM; note: nearly all actives have a fitted effect of over 50% in size; note: potency is the fitted concentration of half-maximal effect
# Outline: (§1)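 HepG2 cells (600/well) mixed with RealTime-Glo MT reagent, settled 5 h at 37 C/5% CO2 before compound addition. Nonlytic NanoLuc luminescence from viable-cell prosubstrate reduction read repeatedly during 40 h treatment at 37 C.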
# [3] = A CellTox Green Cytotoxicity Assay to monitor cytotoxicity in HepG2 cells - 24 hour (AID 1224878); settings: CellTox Green fluorescence; series mostly up to 76.8 µM; note: nearly all actives have a fitted effect of over 45% in size; note: potency is the fitted concentration of half-maximal effect; for Cytotoxicity: % is set by controls: 0 for no effect and ±100 for the full control effect
# Outline: (§2)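 Measurements at 0, 8, 16, 24, 32 and 40 h of treatment captured CellTox Green fluorescence in HepG2 cells that had been co-plated with reagent and preincubated 5 h at 37 C/5% CO2.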
# [4] = qHTS assay to identify small molecule agonists of H2AX - cell viability counter screen (AID 1224847; calls by dose curve; note: nearly all actives have a fitted effect of over 30% in size; note: potency is the fitted concentration of half-maximal effect); settings: CHO-K1 viability, CellTiter-Glo luminescence, 3 h; series mostly up to 154 µM
# Outline: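 Counter-screen for viability: CellTiter-Glo ATP luminescence read after 3 h compound treatment (15-point titration, 0.76% DMSO final) of CHO-K1 cells at 37C, with 30 min room-temperature reagent incubation.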
# [5] = qHTS assay to identify small molecule agonists of the estrogen related receptor (ERR) signaling pathway from Tox21 library (AID 1224849; calls by dose curve; note: % is set by controls: 0 for no effect and ±100 for the full control effect; nearly all actives have a fitted effect of over 15% in size); settings: ERR reporter cell line, ONE-Glo luciferase, 18 h
# Outline: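 Tox21 compounds tested for ERR agonism in an NTP reporter cell line: 18 h treatment at 37 C, then ONE-Glo luminescence.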
# [6] = qHTS RealTime-Glo MT Cell Viability Assay in HepG2 cells - 24 hour (AID 1224867); settings: RealTime-Glo luminescence; series mostly up to 76.8 µM; note: nearly all actives have a fitted effect of over 50% in size; note: potency is the fitted concentration of half-maximal effect
# Outline: (§3)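 Compound treatment began 5 h after plating HepG2 cells (600/well) with NanoLuc luciferase and prosubstrate. Plates stayed at 37 C for 40 h; luminescence was captured at six time points, 0 h through 40 h.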
# [7] = A CellTox Green Cytotoxicity Assay to monitor cytotoxicity in HEK293 cells - 40 hour (AID 1224871); settings: CellTox Green fluorescence; series mostly up to 76.8 µM; note: nearly all actives have a fitted effect of over 45% in size; note: potency is the fitted concentration of half-maximal effect
# Outline: (§4)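 Tox21 screen in HEK293: membrane-impermeant cyanine dye fluoresces on binding dead-cell DNA; compound pinned 5 h post-seeding, plates held at 37 C, signal read repeatedly through 40 h.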
# [8] = qHTS RealTime-Glo MT Cell Viability Assay in HEK293 cells - 16 hour (AID 1224872); settings: RealTime-Glo luminescence; series mostly up to 76.8 µM; note: nearly all actives have a fitted effect of over 50% in size; note: potency is the fitted concentration of half-maximal effect
# Outline: (§5)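 Quantitative high-throughput screen of the Tox21 10K library in HEK293: cells and RealTime-Glo reagents plated together, compound added at 5 h, luminescence monitored through 40 h at 37 C.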
# [9] = qHTS RealTime-Glo MT Cell Viability Assay in HepG2 cells - 8 hour (AID 1224873); settings: RealTime-Glo luminescence; series mostly up to 76.8 µM; note: nearly all actives have a fitted effect of over 55% in size; note: potency is the fitted concentration of half-maximal effect
# Outline: as §1
# [10] = qHTS RealTime-Glo MT Cell Viability Assay in HEK293 cells - 40 hour (AID 1224874); settings: RealTime-Glo luminescence; max response: stronger effect = lower value; note: potency is the fitted concentration of half-maximal effect; nearly all actives have a fitted effect of over 50% in size
# Outline: (§6)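 HEK293 + NanoLuc + prosubstrate, 600 cells/well; 5 h, 37 C/5% CO2; compound 23 nL in DMSO by pintool; 37 C; luminescence read at 0, 8, 16, 24, 32 and 40 h time points.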
# [11] = A CellTox Green Cytotoxicity Assay to monitor cytotoxicity in HEK293 cells - 24 hour (AID 1224875); settings: CellTox Green fluorescence; series mostly up to 76.8 µM; note: potency is the fitted concentration of half-maximal effect; nearly all actives have a fitted effect of over 45% in size
# Outline: as §4
# [12] = A CellTox Green Cytotoxicity Assay to monitor cytotoxicity in HepG2 cells - 16 hour (AID 1224876); settings: CellTox Green fluorescence; series mostly up to 35.3 µM; note: nearly all actives have a fitted effect of over 45% in size; note: potency is the fitted concentration of half-maximal effect
# Outline: as §2
# [13] = A CellTox Green Cytotoxicity Assay to monitor cytotoxicity in HepG2 cells - 40 hour (AID 1224879); settings: CellTox Green fluorescence; series mostly up to 76.8 µM; note: potency is the fitted concentration of half-maximal effect; nearly all actives have a fitted effect of over 40% in size
# Outline: as §2
# [14] = A CellTox Green Cytotoxicity Assay to monitor cytotoxicity in HEK293 cells - 32 hour (AID 1224881); settings: CellTox Green fluorescence; series mostly up to 76.8 µM; note: potency is the fitted concentration of half-maximal effect; nearly all actives have a fitted effect of over 40% in size
# Outline: as §4
# [15] = qHTS RealTime-Glo MT Cell Viability Assay in HEK293 cells - 32 hour (AID 1224868); settings: RealTime-Glo luminescence; series mostly up to 76.8 µM
# Outline: as §5
# [16] = qHTS RealTime-Glo MT Cell Viability Assay in HEK293 cells - 0 hour (AID 1224880); settings: RealTime-Glo luminescence; series mostly up to 76.8 µM
# Outline: as §6
# [17] = qHTS RealTime-Glo MT Cell Viability Assay in HepG2 cells - 32 hour (AID 1224877); settings: RealTime-Glo luminescence; series mostly up to 76.8 µM; note: nearly all actives have a fitted effect of over 55% in size; note: potency is the fitted concentration of half-maximal effect
# Outline: as §3
# [18] = qHTS assay to identify small molecule antagonists of the estrogen related receptor (ERR) signaling pathway from Tox21 library (AID 1224848); settings: ERR reporter cell line, luciferase antagonist mode, 18 h; series mostly up to 92.4 µM
# Outline: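 Quantitative high-throughput format: ERR reporter cells (2,000/well) pre-incubated 6 h, treated 18 h at 37 C with compounds in DMSO alongside positive and negative controls, then read by ONE-Glo luminescence.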
# Tags give direction and shape of the fitted curve or compound fluorescence and quenching.
compound,measurement,setting,value
CC1CCCNC1 (stereo not given),Potency,[1],"inconclusive: 53.8 µM [falling, single point]"
same,Potency,[2],inactive
same,Potency,[3],inactive
CC[C@H](C)C(=O)O[C@H]1C[C@@H](C)C=C2C=C[C@H](C)[C@H](CC[C@@H]3C[C@@H](O)CC(=O)O3)[C@H]21,Potency,[4],active: 115 µM
same,"activity change, positive = activation",[5]; at 42.5 µM (top of the series),active: 14.3%
same,"activity change, positive = activation",[5]; at 92.4 µM (top of the series),active: -46.9% and active: 27.5%
same,Potency,[6],"inconclusive: 55.7 µM [falling, partial curve] and inconclusive: 21.3 µM [falling, partial curve]"
same,Potency,[2],"inconclusive: 55.7 µM [falling, partial curve] and inconclusive: 21.3 µM [falling, partial curve]"
same,Potency,[7],"inconclusive: 70.1 µM [activator, single point] and inactive and inconclusive: 26.8 µM [activator, single point]"
same,Potency,[8],"inconclusive: 55.7 µM [cytotoxic, partial curve]"
same,Potency,[9],"inconclusive: 62.5 µM [falling, single point]"
same,Potency,[10],"inconclusive: 55.7 µM [cytotoxic, partial curve]"
same,Potency,[11],"inconclusive: 62.5 µM [activator, single point] and inconclusive: 23.9 µM [activator, single point]"
same,Potency,[12],active: 49.6 µM and active: 16.9 µM
same,Potency,[3],"inconclusive: 34.5 µM [activator, partial curve, poor fit]"
same,Potency,[13],active: 7.01 µM and active: 21.8 µM and active: 9.52 µM
same,Potency,[14],"inconclusive: 62.5 µM [activator, single point] and inconclusive: 26.8 µM [activator, single point]"
Cc1cc(O)c(C(C)C)cc1Cl,Potency,[4],"inconclusive: 61.9 µM [cytotoxic, single point]"
same,Potency,[15],"inconclusive: 43.6 µM [cytotoxic, partial curve, poor fit]"
same,Potency,[7],"inconclusive: 26.8 µM [activator, single point]"
same,Potency,[8],"inconclusive: 49 µM [cytotoxic, partial curve, poor fit]"
same,Potency,[12],"active: 24.5 µM and inconclusive: 26.8 µM [activator, single point]"
same,Potency,[3],"inconclusive: 23.9 µM [activator, partial curve, poor fit]"
same,Potency,[13],"inconclusive: 23.9 µM [activator, partial curve, poor fit]"
same,Potency,[14],"active: 38.9 µM and inconclusive: 26.8 µM [activator, single point]"
CN(C)c1ccc(SC#N)cc1,Potency,[1],inactive
same,Potency,[7],inactive
CC(=O)OC/C=C(C)/C=C/C=C(C)/C=C/C1=C(C)CCCC1(C)C,Potency,[1],inactive
same,Potency,[8],"inconclusive: 23.9 µM [rising, partial curve, poor fit]"
same,Potency,[3],"inconclusive: 1.55 µM [activator, partial curve, poor fit]"
same,Potency,[13],"inconclusive: 53.6 µM [activator, single point] and inconclusive: 1.74 µM [activator, partial curve, poor fit]"
Cn1cc(C(=O)[C@@H]2CCc3nc[nH]c3C2)c2ccccc21,Potency,[1],"inconclusive: 12 µM [falling, partial curve]"
same,Potency,[15],"inconclusive: 10.7 µM [cytotoxic, partial curve]"
same,Potency,[8],"inconclusive: 8.49 µM [cytotoxic, partial curve, poor fit]"
same,Potency,[10],"inconclusive: 10.7 µM [cytotoxic, partial curve, poor fit]"
O=C(O)c1ccccc1C(c1ccc(O)cc1)c1ccc(O)cc1,Potency,[4],inactive
same,Potency,[6],inactive
CCCCCCCCCCCCN,Potency,[1],"inconclusive: 61.6 µM [falling, single point]"
same,Potency,[8],inactive and active: 38.9 µM
same,Potency,[9],inactive and active: 21.9 µM
same,Potency,[12],active: 19.5 µM
same,Potency,[3],inactive and active: 19.5 µM
same,Potency,[13],active: 21.9 µM
same,Potency,[16],"inconclusive: 24.5 µM [rising, partial curve]"
ClC1=C(Cl)C(Cl)(Cl)C(Cl)=C1Cl,Potency,[1],"inconclusive: 15.6 µM [falling, full curve] and inconclusive: 9.77 µM [falling, full curve]"
same,Potency,[8],"inconclusive: 34.9 µM [cytotoxic, partial curve, poor fit] and inconclusive: 61.7 µM [cytotoxic, single point]"
same,Potency,[10],"inconclusive: 61.7 µM [cytotoxic, single point]"
same,Potency,[11],"inconclusive: 8.76 µM [activator, full curve, poor fit] and active: 38.9 µM"
same,Potency,[3],"inconclusive: 24.7 µM [activator, single point]"
same,Potency,[13],"inconclusive: 61.7 µM [activator, partial curve, poor fit]"
Cc1c2ccccc2c(C)c2c1ccc1ccccc12,Potency,[4],"inconclusive: 25.3 µM [cytotoxic, single point]"
same,Potency,[6],"inconclusive: 43.6 µM [falling, single point]"
same,Potency,[2],"inconclusive: 54.9 µM [falling, single point]"
same,Potency,[7],"inconclusive: 54.4 µM [activator, single point] and active: 43.6 µM"
same,Potency,[8],"inconclusive: 43.2 µM [cytotoxic, partial curve] and inconclusive: 21.9 µM [cytotoxic, full curve]"
same,Potency,[10],active: 43.2 µM and active: 34.7 µM
same,Potency,[11],"inconclusive: 61 µM [activator, single point] and active: 49 µM"
same,Potency,[17],"inactive and inconclusive: 43.6 µM [cytotoxic, partial curve]"
same,Potency,[3],"inconclusive: 61.6 µM [activator, single point]"
same,Potency,[13],"inconclusive: 54.9 µM [activator, single point]"
same,Potency,[14],"inconclusive: 61 µM [activator, single point] and active: 43.6 µM"
COc1ccc(CN2CCN(C(c3ccc(F)cc3)c3ccc(F)cc3)CC2)c(OC)c1OC,Potency,[4],active: 49.2 µM
same,Potency,[18],active: 13.3 µM
same,Potency,[6],"inconclusive: 21.3 µM [falling, partial curve]"
same,Potency,[15],active: 16.9 µM
same,Potency,[2],"inconclusive: 23.9 µM [falling, partial curve, poor fit]"
same,Potency,[8],active: 9.52 µM
same,Potency,[17],"inconclusive: 21.3 µM [cytotoxic, partial curve]"
same,Potency,[13],active: 10.7 µM
CC(=O)O[C@]1(C(C)=O)CC[C@H]2[C@@H]3C=C(C)C4=CC(=O)CC[C@]4(C)[C@H]3CC[C@@]21C,Potency,[4],"inconclusive: 1.79 µM [cytotoxic, single point]"
same,Potency,[6],"inconclusive: 43.6 µM [falling, partial curve]"
same,Potency,[15],"inconclusive: 9.52 µM [cytotoxic, partial curve]"
same,Potency,[2],"inconclusive: 49 µM [falling, partial curve, poor fit]"
same,Potency,[8],"inconclusive: 17.4 µM [cytotoxic, full curve] and inconclusive: 13.4 µM [cytotoxic, partial curve]"
same,Potency,[9],"inconclusive: 49 µM [falling, partial curve, poor fit]"
same,Potency,[12],inactive
same,Potency,[17],"inconclusive: 43.6 µM [cytotoxic, partial curve, poor fit]"
same,Potency,[16],active: 5.49 µM and active: 2.68 µM
Oc1ccc2cc(SSc3ccc4cc(O)ccc4c3)ccc2c1,Potency,[4],active: 89.9 µM and inconclusive: 101 µM [cytotoxic]
same,Potency,[6],"inconclusive: 54.9 µM [falling, single point]"
same,Potency,[15],"inconclusive: 55 µM [cytotoxic, single point] and inconclusive: 54.9 µM [cytotoxic, single point]"
same,Potency,[2],"inconclusive: 54.9 µM [falling, single point]"
same,Potency,[8],"inconclusive: 54.9 µM [cytotoxic, single point]"
same,Potency,[10],"inconclusive: 54.9 µM [cytotoxic, single point]"
same,Potency,[11],"inconclusive: 55 µM [activator, single point] and inconclusive: 19.5 µM [activator, partial curve]"
same,Potency,[12],"inconclusive: 21.9 µM [activator, partial curve, poor fit]"
same,Potency,[17],"inconclusive: 54.9 µM [cytotoxic, single point]"
same,Potency,[3],"inconclusive: 21.9 µM [activator, single point]"
same,Potency,[16],"inconclusive: 55 µM [falling, single point]"
same,Potency,[14],active: 43.7 µM and active: 19.5 µM
